Source: PubChem BioAssay (NCATS)
The shares of active, inactive and inconclusive entries below differ from those in the screen. For some assays here: Potencies of inconclusive entries are doubtful fits and often do not repeat. Activity calls are given as the source filed them. The call rests on the fitted dose curve; in most records, active means well fitted curve in the direction sought with a large enough effect; inconclusive means small, poorly fitted or top-dose-only effect, or another doubt; inactive means no such curve, though single readings can be large; an effect the other way counts as inactive or inconclusive.

Assays:
[1] = OV-KATE Cancer Cell Toxicity qHTS against the NCATS CANVASS Library (AID 1347345); further: potency means the concentration at half of the fitted maximal effect
In short: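 Per well, 1000 cells; exposure 72 h with compound at 11 final concentrations; readout CellTiter-Glo luminescence.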

[2] = COV-362 Cancer Cell Toxicity qHTS against the NCATS CANVASS Library (AID 1347352); further: potency means the concentration at half of the fitted maximal effect
In short: (§1)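 First, 1000 cells go into each well and rest for 4 hours. Next, an 11-point dilution range is pinned in. Plates then incubate 72 hours before CellTiter-Glo addition and luminescence reading.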

[3] = UWB1.289-WTBRCA1 Cancer Cell Toxicity qHTS against the NCATS CANVASS Library (AID 1347354); further: potency means the concentration at half of the fitted maximal effect
In short: as §1

[4] = HPAF-II 12hr Apoptosis Induction qHTS against the NCATS CANVASS Library (AID 1347358); further: potency means the concentration at half of the fitted maximal effect
In short: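 Cells plated at 500 per well are dosed with compound and incubated 12 hours at 37 degrees C. Caspase-Glo 3/7 reagent is added and, after 15 min at room temperature, luminescence proportional to caspase activity is measured.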

[5] = KB-8-5-11 Cancer Cell Toxicity qHTS against the NCATS CANVASS Library (AID 1347364); conditions: activity change, negative = toxicity: at 46.1 µM (top of the series); further: potency means the concentration at half of the fitted maximal effect; nearly all actives have a fitted effect of over 75% in size
In short: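 Terse: KB-8-5-11, 500 cells/well, 72 hr, 37C/5% CO2, 11-pt titration, CellTiter-Glo readout; confirmatory runs ± 1uM tariquidar in medium.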

[6] = KB-3-1 Cancer Cell Toxicity qHTS against the NCATS CANVASS Library (AID 1347366); further: potency means the concentration at half of the fitted maximal effect; nearly all actives have a fitted effect of over 75% in size
In short: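 KB-3-1 cells (500/well) in DMEM with 10% FBS were exposed to compounds for 72 h at 37C. Viability was read by CellTiter-Glo luminescence.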

[7] = G06 Cancer Cell Toxicity qHTS against the NCATS CANVASS Library (AID 1347368); further: potency means the concentration at half of the fitted maximal effect; nearly all actives have a fitted effect of over 60% in size
In short: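 Cells were plated at 500 per well, then compounds were added over an 11-point range. After 72 hr at 37C, CellTiterGlo was added and luminescence measured as ATP content.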

[8] = MCF7 Cancer Cell Toxicity qHTS against the NCATS CANVASS Library (AID 1347369); conditions: activity change, negative = cytotoxicity: at 46 µM (top of the series); further: potency means the concentration at half of the fitted maximal effect
In short: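 MCF7 cells (500/well) were exposed 72 h at 37 °C to compounds in an 11-point series. Viability was read as ATP content by CellTiterGlo luminescence.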

[9] = target: Nuclear receptor subfamily 1 group I member 3 (Homo sapiens) (UniProt Q14994); experiment: qHTS for Constitutive Androstane Receptor (CAR) Antagonist screened against the NCATS CANVASS Library (AID 1347372); further: potency means the concentration at half of the fitted maximal effect
In short: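 Cells were seeded and left 4hr to attach, then received compound at 11 concentrations and 50 nM CITCO. Following 24hr incubation, fluorescence viability and luciferase luminescence were read sequentially.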

[10] = qHTS for Hypoxia signaling pathway (HIF-1) antagonists against the NCATS CANVASS Library (AID 1347374); further: potency means the concentration at half of the fitted maximal effect; nearly all actives have a fitted effect of over 60% in size
In short: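 Antagonism scored as loss of CoCl2-driven (60 uM stock added) HRE beta-lactamase signal, read by CCF4 FRET at 460/530 nm. Compounds were tested in an 11-point series on ME-180 reporter cells for 17 hrs at 37C, with parallel CellTiter-Glo cytotoxicity.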

[11] = qHTS for Hypoxia signaling pathway (HIF-1) agonists against the NCATS CANVASS Library (AID 1347375); further: potency means the concentration at half of the fitted maximal effect
In short: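 Cells plated and rested 5 h, compounds pinned in DMSO across 11 concentrations, incubated 17 h at 37C, loaded with CCF4-AM for 2 h, fluorescence read at 460 and 530 nm, then CellTiter-Glo luminescence measured for viability and normalization.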

[12] = 10-beta competent E. coli microbial cell viability qHTS against the NCATS CANVASS Library (AID 1347376); further: potency means the concentration at half of the fitted maximal effect
In short: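 Bacterial suspension diluted to 0.2 OD was dosed with compounds, 11-point series, then held overnight at 37C. BacTiter-Glo reagent was added, and after 20 min at room temperature ATP-dependent luminescence was measured.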

[13] = DH5-alpha competent E. coli microbial cell viability qHTS against the NCATS CANVASS Library (AID 1347377); conditions: viability signal change, negative = cytotoxic: at 46.1 µM (top of the series); further: potency means the concentration at half of the fitted maximal effect
In short: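 Bacteria were dispensed at 0.2 OD, then compounds were pin-transferred. Plates were incubated overnight at 37C, after which BacTiter-Glo was added and luminescence measured 20 min later.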

[14] = qHTS for H2AX Agonists against the NCATS CANVASS Library (AID 1347378); further: potency means the concentration at half of the fitted maximal effect
In short: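 CHO-K1 cells (1000/well, overnight at 37C) exposed to compounds at several concentrations for 3 hr at 37C, 0.76% DMSO final. Lysates read by TR-FRET (phospho-H2AX S139 Eu-cryptate antibody / H2AX-d2 antibody) after 24 hr at room temperature; 665/615 nm ratio.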

[15] = qHTS for Antimalaria activity screened against the NCATS CANVASS Library (AID 1347380); further: potency means the concentration at half of the fitted maximal effect; nearly all actives have a fitted effect of over 40% in size
In short: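 Compounds are titrated over 11 concentrations onto Dd2 parasite cultures (0.3% parasitemia, 2.5% hematocrit). Growth over 72 h at 37C in low oxygen is measured as SYBR Green DNA fluorescence after lysis.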

[16] = Inflammasome Signaling qHTS Counterscreen: IL-1-beta AlphaLISA counterscreen against the NCATS CANVASS Library (AID 1347381); further: potency means the concentration at half of the fitted maximal effect
In short: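 Purified IL-1-beta (4 pg/well) + compound, 11-pt conc. series; acceptor beads 6 ug/mL + biotin-Ab 0.6 nM final, 1 h RT; SA-donor 24 ug/ml final, 30 min dark RT; read ex 680/em 615.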

[17] = Cytotoxicity qHTS for assessment of Hepg2 cells membrane integrity screened against the NCATS CANVASS Library (AID 1347387); further: potency means the concentration at half of the fitted maximal effect
In short: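 Cells were seeded at 2000 per well and left overnight to attach. Compounds were pin-transferred to give 0.59 nM - 46 uM in an 11-point series and incubated 5 hr at 37C. CytoTox-ONE reagent was added and, after 10 min at room temperature, fluorescence (ex 560, em 590 nm) was read.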

[18] = qHTS for Activators of p53 Stress Response Pathway screened against the NCATS CANVASS Library (AID 1347388); further: potency means the concentration at half of the fitted maximal effect
In short: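 p53RE-bla HCT-116 cells (4000/well) were plated 5 h at 37C, exposed to compounds for 16 h at 37C over an 11-point concentration series, then loaded with CCF4 for 2 h at room temperature; 460/530 nm emission ratio read.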

[19] = Secretion counterscreen for inhibitors of the SERCaMP assay screened against the NCATS CANVASS Library (AID 1347390); conditions: SH-SY5Y constitutive GLuc secretion, luminescence, 20 h; series mostly up to 76.6 µM
In short: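 SH-SY5Y cells with constitutively secreted GLuc reporter, 1000 cells/well, treated 20 h at 37C with compounds at 0.001 - 77 uM final; secreted luciferase read as luminescence after coelenterazine; Brefeldin A as positive control.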

[20] = qHTS for activators of Nrf2/ARE signaling pathway screened against the NCATS CANVASS Library (AID 1347391); further: nearly all actives have a fitted effect of over 60% in size
In short: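 Beta-lactamase reporter signal, read as 460 and 530 nm emission under 405 nm excitation after 2 h CCF4 loading, reflected ARE activation in HepG2 cells treated 16 h with an 11-point series.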

[21] = qHTS for activators of dead-cell proteases activity screened against the NCATS CANVASS Library (AID 1347392);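 further: luminescence from protease leaking out of membrane-damaged cells cleaving impermeant substrate; potency means the concentration at half of the fitted maximal effect; rising signal means more cytotoxicity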
In short: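 Cytotoxicity in HepG2 cells was assessed by released protease cleaving AAF-aminoluciferin, with luminescence as signal. Exposure lasted 5 h at 37C across an 11-point series.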

[22] = qHTS for inhibitors of Wild type Zika virus screened against the NCATS CANVASS Library (AID 1347396); further: potency means the concentration at half of the fitted maximal effect
In short: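 Protection against wild-type Zika cytopathic effect is measured in African green monkey Vero 766 cells exposed to an 11-point compound series. Surviving cells are quantified by CellTiter Glo luminescence after 72 h.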

[23] = Redox Reaction Profiling qHTS: Assay Interference Panel against the NCATS CANVASS Library (AID 1347401)
In short: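 Quantitative HTS over an 11-point series was run in HEPES pH 7.3 with 50 mM NaCl, 200 uM DTT and 5 uM resazurin. Initial and 15-min resorufin fluorescence readings were taken.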

Measured: Potency
Tags describe the fitted curve by direction and shape.

Sequence of UniProt Q14994 (Q14994 whole entry, looked up): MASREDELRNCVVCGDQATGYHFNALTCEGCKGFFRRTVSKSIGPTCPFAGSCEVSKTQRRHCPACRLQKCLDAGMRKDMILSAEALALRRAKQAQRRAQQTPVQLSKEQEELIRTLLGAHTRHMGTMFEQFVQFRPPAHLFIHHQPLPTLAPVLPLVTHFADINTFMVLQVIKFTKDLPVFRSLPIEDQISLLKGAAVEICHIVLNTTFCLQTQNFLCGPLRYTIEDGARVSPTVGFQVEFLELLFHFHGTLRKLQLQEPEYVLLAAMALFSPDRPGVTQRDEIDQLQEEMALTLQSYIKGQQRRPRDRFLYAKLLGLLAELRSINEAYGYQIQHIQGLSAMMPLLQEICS

CN1CC[C@]2(c3cccc4c3N[C@@H]3N(C)CC[C@]43[C@@]34CCN(C)[C@@H]3Nc3c([C@]56CCN(C)[C@H]5Nc5ccccc56)cccc34)c3ccccc3N[C@H]12
inactive: [20] | [23]
active: [1] 8.38 µM | [2] 5.94 µM | [3] 10.6 µM | [5] 9.35 µM | [6] 4.69 µM | [7] 2.64 µM | [8] 2.34 µM | [9] 26.3 µM | [11] 9.41 µM | [14] 13.7 µM
inconclusive: [4] 37.2 µM [activator, single point] | [10] 10.6 µM [inhibitor, single point] | [12] 37.1 µM [cytotoxic, single point] | [13] 14.8 µM [rising, partial curve] | [15] 0.594 µM [cytotoxic, partial curve, poor fit] | [16] 30.6 µM [inhibitor, partial curve] | [17] 33.1 µM [rising, single point] | [18] 29.5 µM [activator, single point] | [19] 3.43 µM [inhibitor, full curve, poor fit] | [21] 29.5 µM [activator, single point] | [22] 36.9 µM [inhibitor, single point]
